The source gives no read counts; variants with many changes may rest on few reads.
B1: OR4K15 (parent)
chain: GUUAACGGUCAUAGGCCAUGGAAACUAGGAGCACCAUUUCGCUGCCAGUGAAGAAAUGAACAAAGAAAAUCUGGGCCAGGCAGGCAUCAAAAGAAAUAGUCUUGCGCUCAACCAGAAAGUCUGUAAUCAUUUUAAGGGUA

Variants of: B1
Assay: self-cleavage, relative activity (ratio to wild type); higher = more cleavage; in vitro, sequencing; the parent is a self-cleaving ribozyme

Variant | self-cleavage
A62U U72C A82G | 0.14
U39C A47G G74A | 0.24
A30U A55G A116G | 0.36
A59U A60G A95G A125G | 2
A5G A11G A95G U103C A114G | 0.16
U49C A59U A91G | 0.73
U9A A98G C121U | 0.69
A51U A78G A96G G136A | 0.3
U57A A92G A116G | 0.24
U19C G48A A62G A96G | 0.77
A22G A52G A66U U97C A134G | 0.58
A60G A62G U130C | 0.43
A18G A67G A114G | 0.29
C40U A54U A64G | 1.45
A23G A33U U38C A51U | 1.35
A51G A66G A78U | 0.66
A51G G84A U103C | 1.31
A27U A66G A82U | 0.23
A33U U72A U102C | 0.26
U37C A67G U100A A117G | 1.06
U9C U38C A64G C76U | 0.12
A56G U57C G73A G80A A92G | 0.23
C45G A92G U100C A126G | 0.12
A23G A56G A96G | 0.87

Variant | self-cleavage
U12C A36G A51G A94G A129G | 0.79
A69G A78G U103C | 0.04
A22U A78U A118G | 0.05
U39G A64G A86C U132C | 0.39
A67G U103C A135G | 1.5
A18G U37C U43C A91G A94G | 1.78
A11U A36C A111G U122C | 0.01
A33G U37C A92G U130C | 0.44
A52G A91G U139C | 1.18
A22U A33U A51G A82U U102C A110C | 0.06
A11U A22G A111G A126G | 0.02
A22G U70C A94G U124C U132C | 0.18
A51G A54G G83U A90C A116C U127C | 0.01
A47U U70C A78C A117G U127C | 0.09
U38C U49C A64G U122G | 1.15
A116G U124A U130C U139C | 0.45
A24G U49A U122C | 0.54
U2C A36G A90G | 0.74
A55G A62G A64U | 1.81
A24G A60U A78G A114G U130C | 0.04
A52G C77U A78G | 0.29
U2C A47G U49C A94G | 1.04
G31C U57A U72C | 0.29
A60G A78G G83A | 0.26

Variant | self-cleavage
A5G U43C A62G A86G | 0.57
U3C A96G A125G | 0.26
U12C U122A A134G | 1.16
A96G U102C A118U | 1.14
A22G U43C A86G | 0.94
A13G A62G A92G A135G | 0.79
U12C A24U A56G A63G A135G | 0.95
A82G A116G C128U | 0.05
A11G U49A A68G U72A | 0.37
A60G C76U A111U | 0.03
U9A C40U U130C | 0.54
A56G A59G U102C | 1.52
U9C A22G C128U | 1.09
A30G A51U U108C | 0.11
U43A A114G U130C | 0.08
U19C A89U U120C | 1.06
U43C A51U A68G A92G A116U U132C | 0.09
A4G A63G A111G | 0.1
A60C A94G A114G U127C U131C | 0.09
A68G A91G A114U | 0.02
U49C A67G A96G A98G | 0.29
A47G A86U A94C | 1.42
U12C A94G U103C | 1.16
A69U U87C A92G | 1.6

Variant | self-cleavage
A13U A66G G79U A82U A96G | 0.14
A23G A30G C32U | 1.15
A5G A18U A33G A55C | 0.9
A27C A52G A67G G73A | 0.26
U3C A47U A55G | 0.27
C46U G79U U100A | 0.03
A30G A59G U87C A92G U127C | 1.03
A82U A90G A114U | 0.02
U9C U12A A62G U102A U130C | 1.03
A23G C81U U87C U100C | 0.62
A33U A51U A134G | 2.48
U2C A30G U38C U103C | 0.69
U19G U57A A59U A96G | 1.15
A5G A33G G58A U122C | 1.46
U19C U38C A47C A117G | 2.39
C16U A51G A111G | 0.07
G44A U72A A89U A94G A95G U131C | 0.03
A64G A69G U133A | 1.42
A27G U103C G104A U108C A129C | 0.01
U3C A5U A36G | 1.69
A30G A60G A92G A114U | 0.03
A47G A64G A78U A91G | 0.08
A13G U57C C71A | 0.51
A52C A64G A92C U100G A110G | 0.07

Variant | self-cleavage
G15A U43C A52G A68U U120C | 1.64
A13G A62G C77U | 0.9
A63G A67U U103C | 0.38
U3G U49C A126G | 0.82
A24G A117G U127A | 1.33
A4U A23G A47G A52G U127A | 0.67
A111G A118G U127A | 0
A64G A94G A117G | 0.64
A63G A92G A111U | 0.13
U19C U43A A62U U103G | 0.05
A22G A59G U87C U103C | 0.6
G1A A51G A54G A116U | 0.92
U9C U39C A82U A116G | 0.09
G7A A11C A62G U70C A82U G106A | 0.01
U2C A51U C77A A78G | 0.55
U9C A59G U130C | 1.18
A56G A67G U72A U103C C113A | 0.08
A5U A52G A90G | 1.66
A5G U37C U70C | 0.28
A22G A117G U132C | 1.98
G44U A52G U120C | 0.87
A33U U38C U102C C107U | 0.03
A59G U133C A134U | 1.59
A60G A69G A94G U108C A140C | 0

Variant | self-cleavage
A22G A56G U72C A86U C121U | 0.68
A95G U102C U120C A135G | 2.1
U43A G65A A86G U102C U108A A118U | 0.02
A11U A86G A111G A140C | 0.02
A11U A22U U120C | 1.3
A78U A110G U120C | 0.03
A52G A63G A118G | 2.11
U38C A52G U120C | 1.63
U49C A51C A69U U122C | 0.08
A23U U100A U131C | 0.3
A23U U122C U131C | 0.5
A24U A91G C121U | 1.89
A54U A63C U130C | 2
A5G A11U A91G | 1.04
U3C A23G A51G | 1.02
A55G U57C A59G A90G | 0.15
G1C A52G A89G A117G U132A | 0.51
A66G A67G A78U | 0.54
U39A A55G A67G G75C U87C U130C | 0.09
A23U G104A A111U | 0.04
U9C A18U A68U | 1.31
A23G A98G A118C U122A | 0.06
A13G A36U U108C | 0.1
A30G A78G A86U U122C | 0.22

Variant | self-cleavage
U38C A68G U103A U132A | 0.79
A56G G99A U108C A135G | 0.02
C34U U102C A117G | 2.74
A22G U38A A92G U102C A117G | 2.94
A23C A51G U102C U124G | 1.62
A51G A68G U127C | 1.45
A22G A67G A90G | 0.62
U9C G53C U127C | 0.82
U43C C76G U87C | 0.11
A22G A82U A111G | 0.03
U37C U43C G79C G138C | 0.06
A18U A51U A67G | 1.57
A60G U100C A135G | 2.41
A23G A47G U122C | 0.61
U19A A30G U102C U103C | 0.43
U9C G20A U70A | 1.82
U9C A68G A98G U130C | 0.34
A24G A78G A129G U130C | 0.29
U39C A55G U100C A114U U132C A135G | 0.03
A66G A86G A89U | 2.28
A22G U26A U122C U132C | 0.57
U43C A56G G73U | 0.13
U72C A95G G104U A135U | 0.01
